Measurements: the supplement of paper PMC8728848
The list shows a part of the results.

Key:
Experiment in all cases: glycan array binding signal (z-score within array); higher = stronger binding
Conditions in all cases: glycan notation: IUPAC condensed, linker removed
[1] = molecular target: GlcNAc(b1-4)GlcNAc(b1-4)GlcNAc(b1-4)GlcNAc(b1-4)GlcNAc
How it was run: (§1)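 The binding signal is a Z-score computed within each array. Data were drawn from 3228 arrays in the Consortium for Functional Glycomics database, restricted to those with a known protein sequence. Scores were averaged over arrays of the same protein sequence at different concentrations or buffers, and over linkers, and negative values can be taken as non-binding.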

[2] = molecular target: GlcNAc(b1-4)GlcNAc(b1-4)GlcNAc(b1-4)GlcNAc(b1-4)GlcNAc(b1-4)GlcNAc
How it was run: as §1

[3] = molecular target: GlcNAc(b1-4)[GlcNAc(b1-6)]GalNAc
How it was run: as §1

[4] = molecular target: GlcNAc(b1-6)Gal(b1-4)GlcNAc
How it was run: as §1

GlcNAc(b1-6)GalNAc = molecular target: GlcNAc(b1-6)GalNAc
How it was run: as §1

[5] = molecular target: GlcNAc6S(b1-3)Gal(b1-4)GlcNAc
How it was run: as §1

Kdn(a2-3)Gal(b1-3)GalNAc = molecular target: Kdn(a2-3)Gal(b1-3)GalNAc
How it was run: as §1

Kdn(a2-3)Gal(b1-3)GlcNAc = molecular target: Kdn(a2-3)Gal(b1-3)GlcNAc
How it was run: as §1

Kdn(a2-3)Gal(b1-4)Glc = molecular target: Kdn(a2-3)Gal(b1-4)Glc
How it was run: as §1

Kdn(a2-3)Gal(b1-4)GlcNAc = molecular target: Kdn(a2-3)Gal(b1-4)GlcNAc
How it was run: as §1

[6] = molecular target: Kdn(a2-3)Gal(b1-4)[Fuc(a1-3)]GlcNAc
How it was run: as §1

Kdn(a2-6)Gal(b1-4)GlcNAc = molecular target: Kdn(a2-6)Gal(b1-4)GlcNAc
How it was run: as §1

[7] = molecular target: Man(a1-2)Man(a1-2)Man(a1-3)Man
How it was run: as §1

[8] = molecular target: Man(a1-2)Man(a1-2)Man(a1-6)[Man(a1-3)]Man
How it was run: as §1

Man(a1-2)Man(a1-3)Man = molecular target: Man(a1-2)Man(a1-3)Man
How it was run: as §1

[9] = molecular target: Man(a1-2)Man(a1-3)[Man(a1-2)Man(a1-6)]Man
How it was run: as §1

[10] = molecular target: Man(a1-2)Man(a1-3)[Man(a1-2)Man(a1-6)]Man(a1-6)[Man(a1-2)Man(a1-2)Man(a1-3)]Man
How it was run: as §1

[11] = molecular target: Man(a1-2)Man(a1-3)[Man(a1-2)Man(a1-6)]Man(a1-6)[Man(a1-2)Man(a1-2)Man(a1-3)]Man(b1-4)GlcNAc(b1-4)GlcNAc
How it was run: as §1

[12] = molecular target: Man(a1-2)Man(a1-3)[Man(a1-6)]Man(a1-6)[Man(a1-2)Man(a1-3)]Man(b1-4)GlcNAc(b1-4)GlcNAc
How it was run: as §1

[13] = molecular target: Man(a1-2)Man(a1-6)[Man(a1-3)]Man(a1-6)[Man(a1-2)Man(a1-2)Man(a1-3)]Man
How it was run: as §1

[14] = molecular target: Man(a1-2)Man(a1-6)[Man(a1-3)]Man(a1-6)[Man(a1-2)Man(a1-2)Man(a1-3)]Man(b1-4)GlcNAc(b1-4)GlcNAc
How it was run: as §1

Man(a1-3)[Man(a1-6)]Man = molecular target: Man(a1-3)[Man(a1-6)]Man
How it was run: as §1

[15] = molecular target: Man(a1-3)[Man(a1-6)]Man(a1-6)[Man(a1-2)Man(a1-3)]Man(b1-4)GlcNAc(b1-4)GlcNAc
How it was run: as §1

[16] = molecular target: Man(a1-3)[Man(a1-6)]Man(a1-6)[Man(a1-3)]Man
How it was run: as §1

[17] = molecular target: Man(a1-3)[Man(a1-6)]Man(a1-6)[Man(a1-3)]Man(b1-4)GlcNAc(b1-4)GlcNAc
How it was run: as §1

[18] = molecular target: Man(a1-3)[Man(a1-6)]Man(b1-4)GlcNAc(b1-4)GlcNAc
How it was run: as §1

[19] = molecular target: Man(a1-3)[Man(a1-6)]Man(b1-4)GlcNAc(b1-4)[Fuc(a1-6)]GlcNAc
How it was run: as §1

Man(a1-6)Man = molecular target: Man(a1-6)Man
How it was run: as §1

Man(b1-4)GlcNAc = molecular target: Man(b1-4)GlcNAc
How it was run: as §1

MurNAc(b1-4)GlcNAc = molecular target: MurNAc(b1-4)GlcNAc
How it was run: as §1

Neu5Ac(a2-3)Gal = molecular target: Neu5Ac(a2-3)Gal
How it was run: as §1

[20] = molecular target: Neu5Ac(a2-3)Gal(b1-3)GalNAc
How it was run: as §1

[21] = molecular target: Neu5Ac(a2-3)Gal(b1-3)GalNAc(b1-3)Gal(a1-4)Gal(b1-4)Glc
How it was run: as §1

[22] = molecular target: Neu5Ac(a2-3)Gal(b1-3)GalNAc(b1-4)[Neu5Ac(a2-3)]Gal(b1-4)Glc
How it was run: as §1

[23] = molecular target: Neu5Ac(a2-3)Gal(b1-3)GalNAc(b1-4)[Neu5Ac(a2-8)Neu5Ac(a2-3)]Gal(b1-4)Glc
How it was run: as §1

[24] = molecular target: Neu5Ac(a2-3)Gal(b1-3)GalNAc6S
How it was run: as §1

[25] = molecular target: Neu5Ac(a2-3)Gal(b1-3)GlcNAc
How it was run: as §1

B1: Epa3 (Candida glabrata), Q6VBI8_CANGB (protein)
chain: MGSSHHHHHHSSGLVPRGSHMNDLGFSLFEKRELSSQNPFGYPIGCSPQDVAIIPGLTMELYSYPIVSGTPPNCYDASYVDPEYPRTGYLKRKMVGKSTGVTGNLNYKYSVEKACMVKYGNLPAGYNYNEPLTVSNFTMILYGYFKAQTTGLHTFFVNADDLLYINFGAGNAFDCCKREDSKTKLGEYVAYDIWHVDSSKNKVSLFLEKDLYYPIRMFFNNIGKDSSLDLSFSVNGATDQISDFSGYLYSVPDQPDTCPAHIGYDTTCR
- glycan array binding signal (z-score) [1]: -0.307
- glycan array binding signal (z-score) [2]: -0.091
- glycan array binding signal (z-score) [3]: -0.045
- glycan array binding signal (z-score) [4]: -0.284
- glycan array binding signal (z-score) (GlcNAc(b1-6)GalNAc): -0.139
- glycan array binding signal (z-score) [5]: -0.013
- glycan array binding signal (z-score) (Kdn(a2-3)Gal(b1-3)GalNAc): -0.196
- glycan array binding signal (z-score) (Kdn(a2-3)Gal(b1-3)GlcNAc): -0.262
- glycan array binding signal (z-score) (Kdn(a2-3)Gal(b1-4)Glc): -0.049
- glycan array binding signal (z-score) (Kdn(a2-3)Gal(b1-4)GlcNAc): -0.225
- glycan array binding signal (z-score) [6]: -0.192
- glycan array binding signal (z-score) (Kdn(a2-6)Gal(b1-4)GlcNAc): -0.334
- glycan array binding signal (z-score) [7]: 0.793
- glycan array binding signal (z-score) [8]: -0.213
- glycan array binding signal (z-score) (Man(a1-2)Man(a1-3)Man): -0.262
- glycan array binding signal (z-score) [9]: -0.293
- glycan array binding signal (z-score) [10]: -0.309
- glycan array binding signal (z-score) [11]: -0.086
- glycan array binding signal (z-score) [12]: -0.175
- glycan array binding signal (z-score) [13]: -0.316
- glycan array binding signal (z-score) [14]: -0.403
- glycan array binding signal (z-score) (Man(a1-3)[Man(a1-6)]Man): 0.007
- glycan array binding signal (z-score) [15]: -0.303
- glycan array binding signal (z-score) [16]: -0.229
- glycan array binding signal (z-score) [17]: -0.086
- glycan array binding signal (z-score) [18]: -0.189
- glycan array binding signal (z-score) [19]: -0.155
- glycan array binding signal (z-score) (Man(a1-6)Man): 0.082
- glycan array binding signal (z-score) (Man(b1-4)GlcNAc): -0.319
- glycan array binding signal (z-score) (MurNAc(b1-4)GlcNAc): -0.357
- glycan array binding signal (z-score) (Neu5Ac(a2-3)Gal): -0.16
- glycan array binding signal (z-score) [20]: -0.088
- glycan array binding signal (z-score) [21]: -0.08
- glycan array binding signal (z-score) [22]: -0.327
- glycan array binding signal (z-score) [23]: 0.075
- glycan array binding signal (z-score) [24]: -0.264
- glycan array binding signal (z-score) [25]: -0.28
